Data taken from the supplement of paper PMC3334620.
Whole data set: some 33,000 sequences, median “E-score (-0.5 to 0.5)” near -0.04, cut for the highest 2% near 0.36. The list shows a part of the results.

Each sequence was assayed against T1, Hmlalpha2 (UniProt P0CY09) (assay: PBM E-score (8-mer binding enrichment) (E-score (-0.5 to 0.5)); higher = stronger / more preferred TF binding; most listed sequences are background and not binding sites). Conditions: protein concentration: 200 nM; construct: GST-full length.
T1 sequence: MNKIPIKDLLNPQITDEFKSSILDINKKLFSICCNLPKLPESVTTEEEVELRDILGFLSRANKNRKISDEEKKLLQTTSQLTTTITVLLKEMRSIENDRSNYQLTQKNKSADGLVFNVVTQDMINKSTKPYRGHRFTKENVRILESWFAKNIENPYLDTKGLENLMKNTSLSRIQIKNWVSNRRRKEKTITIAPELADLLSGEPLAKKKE
In short: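 PURExpress in vitro transcription/translation supplied GST-tagged yeast transcription factors, either full-length or DNA-binding domain. Applied at about 100-200 nM to universal all-10-mer Agilent arrays double-stranded by primer extension, the bound protein was detected with fluorescent anti-GST. E-scores, modified Wilcoxon-Mann-Whitney statistics, were given by the Universal PBM Analysis Suite to ungapped eight-base words pooled with their reverse complements after masliner normalisation.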

Row | Sequence | PBM E-score
1 | TGTATACA | 0.428
2 | GCAGCCTA | -0.0908
3 | GTGCATTA | 0.262
4 | CACATCGG | -0.122
5 | AGCATCTA | -0.0432
6 | GGCACCTA | -0.28
7 | AGAGAATA | -0.00331
8 | AGTCGAGC | -0.233
9 | AGTAATTC | 0.21
10 | AAACATTG | 0.198
11 | TCCCTTCA | -0.169
12 | ACACCCAG | 0.0143
13 | CTATCCAA | -0.17
14 | AATAAGGG | -0.126
15 | AACATCGG | 0.0502
16 | ACGCTACG | 0.0651
17 | GACGTAGC | -0.0226
18 | CTGTCCTC | -0.2
19 | GTATGTGA | 0.199
20 | CGTAAACA | 0.394
21 | ATAGAGCA | 0.04
22 | GTCAGGTA | -0.0231
23 | CATATGTA | 0.356
24 | AGCTGACG | -0.0477
25 | TAGCTTCA | -0.0838

Row | Sequence | PBM E-score
26 | CGACATGA | 0.319
27 | GGACCAAC | 0.0946
28 | AAATGGGC | -0.161
29 | CGAGGTAC | -0.0192
30 | TAGTGATA | -0.00532
31 | CTACTTCC | -0.0725
32 | ATATTCTA | 0.169
33 | CTTCATTA | 0.0939
34 | CAACACCA | 0.207
35 | GGTGATGA | -0.126
36 | GGAGATGA | -0.0226
37 | CGCTACCA | -0.152
38 | AAACGAAC | 0.148
39 | TACGAGCA | -0.00974
40 | CCTTTTCC | -0.249
41 | GTTGCTGA | 0.0934
42 | ACAAACAC | 0.308
43 | GGTCAACA | 0.239
44 | CATCAACC | 0.0266
45 | CATTTTGC | -0.0318
46 | AGGGATAC | 0.0215
47 | AACCAGCG | -0.185
48 | GTTCATGA | -0.0103
49 | CTCAATAC | 0.241
50 | AGCGCATG | -0.0303

Row | Sequence | PBM E-score
51 | CATTAGCG | -0.22
52 | ATGCTCAG | -0.00397
53 | AGCAGAAA | 0.0454
54 | AGAGATGA | -0.146
55 | GATTCCTA | -0.0294
56 | AACCCAAC | 0.0182
57 | ACTAGAAA | -0.0256
58 | TAGTCCCA | -0.18
59 | ATGAAGCA | 0.104
60 | ACTTTGAC | 0.231
61 | CGCATGGC | -0.0395
62 | GAAAGACA | 0.0253
63 | CGGCAATC | -0.158
64 | GATGACGC | -0.0678
65 | AGTATTTG | 0.116
66 | AGAGCAAC | -0.0126
67 | ATTGCGGG | -0.0686
68 | AACGTTAT | 0.248
69 | ACGTAACT | 0.0826
70 | CCGGATCG | -0.176
71 | ACATACCA | 0.227
72 | CTCATTCC | -0.195
73 | GGTCGGGA | -0.122
74 | CGTTCTGA | -0.0682
75 | GCAGTTCA | -0.1

Row | Sequence | PBM E-score
76 | CAGGTTTC | -0.0759
77 | AGAACTCG | -0.0182
78 | CCGGGTTA | -0.151
79 | AGCGCTAT | 0.105
80 | AAGACCGA | -0.0337
81 | GTGTGCCA | -0.0612
82 | AAGCGCTC | -0.125
83 | CTGTGAGA | -0.108
84 | ATTCCTAC | 0.0421
85 | ATTATCCG | 0.0567
86 | AAGTCAAT | 0.0827
87 | AGTCACGA | 0.0156
88 | CGTTACTA | 0.129
89 | CTCTCACA | -0.00636
90 | CCGGAGGC | -0.306
91 | GAGACTTA | -0.038
92 | AGACATCC | -0.192
93 | AGCCATAA | -0.0349
94 | AAGCGTAA | 0.152
95 | CTCCATGA | -0.0886
96 | GACATATA | 0.163
97 | TCAAACGA | 0.11
98 | AGGCCCCT | -0.196
99 | ATTCATTC | 0.0937
100 | CATTTTAC | 0.303

Row | Sequence | PBM E-score
101 | CACGGACA | 0.0886
102 | TACTGCGA | -0.05
103 | AGTGAGGC | -0.165
104 | CCACCCAC | -0.141
105 | GCCTGCTA | -0.128
106 | AGCACGAA | 0.167
107 | CTTATGCA | 0.135
108 | GTAAGTAC | 0.234
109 | CTTCGGCA | -0.198
110 | AGGTTCTC | -0.144
111 | AGATTACC | 0.0994
112 | ACCAAATC | -0.143
113 | CCTCCCAC | -0.13
114 | TAATGGTA | 0.0468
115 | TAATTGCA | 0.199
116 | GTCTTGTA | 0.306
117 | ATCTGGCC | -0.263
118 | ATACCGCC | -0.111
119 | GTCTAGAC | -0.272
120 | CCCCAAGA | -0.00112
121 | ACGAGTTA | 0.184
122 | GCAGCTTA | 0.046
123 | CGCTATTC | 0.125
124 | ATTGTATG | 0.0486
125 | CAGCCGTC | -0.132

Row | Sequence | PBM E-score
126 | AATGCCTC | 0.0341
127 | TAGTAACA | 0.272
128 | AAATTGTA | 0.0866
129 | ACTTCTGA | -0.149
130 | ATAAACCC | 0.0016
131 | CAAACAAC | 0.305
132 | GTAAGCTA | 0.115
133 | ACTACCTC | -0.035
134 | ACGACCTG | -0.0201
135 | CCCACACA | -0.234
136 | AAGTGAGC | -0.0663
137 | TAAGCCGA | -0.0599
138 | GGGGATGA | -0.36
139 | ACTTACCC | 0.035
140 | GACAACGC | 0.125
141 | AAGAATCG | 0.134
142 | CCTGATGA | -0.0972
143 | ACTTCGTA | 0.0376
144 | AGCGTCAG | -0.0948
145 | CTCTTTGA | -0.0927
146 | ACCTCGCG | -0.158
147 | ATCAATTG | 0.0949
148 | GCCACCCA | -0.175
149 | ATGAAGGA | 0.241
150 | AACTCCTT | 0.0825

Row | Sequence | PBM E-score
151 | GAGTCATC | -0.24
152 | CTGGATGC | -0.316
153 | CCGTTGCA | -0.125
154 | CAATTGAA | -0.102
155 | GTTATGAA | 0.186
156 | ACGTGCAG | 0.0703
157 | CGCTGAAG | -0.174
158 | ACCTACCG | -0.13
159 | AAGCTACT | 0.0935
160 | ATTCGGTG | 0.0759
161 | AGAGTCCA | -0.0748
162 | CTACCGGC | -0.231
163 | ACCTTGCG | -0.0929
164 | TTCCGGAA | 0.0484
165 | CAAAGAAA | 0.0656
166 | GACTGACA | -0.0674
167 | GACTCTCC | -0.279
168 | AAATCCGT | -0.00398
169 | GACAGAAC | -0.123
170 | ATAACCAT | 0.00846
171 | CTGCAAGA | -0.0816
172 | ACCCCATG | 0.0298
